Test results: patent US20200255480A1 (Harvard, published 2020)

Target: T1, wild-type CsgA (Escherichia coli, UniProt P28307)
T1 construct: The protein stood assembled into curli fibres on biofilms, or as sheared fibres in the gel experiment; also called wt-CsgA; CsgA WT
Assay: denaturing SDS-PAGE after incubation of AmylaseSC with crudely purified curli fibres (FIG. 9)

B1: Amylase-SpyCatcher (enzyme)
chain: not shown
notes: It was expressed from pET28b in Rosetta cells and purified on Ni-NTA; also called AmylaseSC; Amylase-SC
Does B1 bind?
Result: no binding
